The other results are listed elsewhere or left out.
The compounds below were run on T1, C. trachomatis L2/434/Bu expressing GFP (CTL2-GFP). Details: total inclusion area; 28.5 h, 10 µM; inhibitor.
T1 construct: L2/434/Bu GFP intracellular growth in HeLa cells
Design: species or system HeLa; C. trachomatis total inclusion area by high-content imaging, normalised to DMSO
In short: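 Imaging read-out: GFP inclusions and Hoechst nuclei captured by high-content imaging after fixation. Inclusion area/number = chlamydial growth; nuclei count = host cell viability. MIC calculated per earlier method.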

Row | Compound | % of control remaining
1 | O=C(CC1CCN(C(=O)Cc2ccccc2)CC1)NC1(c2ccccc2)CCCC1 [CBK285965] | 95.173
2 | O=C(NCCc1cccs1)Nc1ccccc1OC(F)(F)F [CBK044873] | 77.5749
3 | Cc1nn(CCC(=O)NC2CCOc3ccccc32)c(C)c1Cl (stereo not shown) [CBK281684] | 113.934
4 | Cc1nc(-c2ccccc2)sc1C(=O)C1=C(O)C(=O)N(CCN(C)C)C1c1ccccc1 (stereo not shown) [CBK266415] | 135.062
5 | CCN(CC)C(=O)CN(CCc1ccc(OC)c(OC)c1)C(=O)NCc1ccc(Cl)cc1 [CBK158742] | 66.9746
6 | CCOC(=O)c1cnn2c(O)cc(CN3CCCC3c3ccsc3)nc12 (stereo not shown) [CBK305647] | 99.9921
7 | CN(C)S(=O)(=O)c1ccc(NC(=O)c2ccc(-c3ccccc3)cc2)cc1 [CBK267322] | 105.182
8 | Nc1cccc(-c2nccnc2NCc2cccnc2)c1 [CBK089310] | 71.2751
9 | Cc1nc(C2CCN(C(=O)c3cscn3)CC2)c2sccn12 [CBK285240] | 68.6804
10 | CC(C)COc1ccc(-c2nonc2NC(=O)c2ccccc2F)cc1 [CBK299831] | 80.6476
11 | COCCc1noc(C(C)NC(=O)Cc2cccc(O)c2)n1 (stereo not shown) [CBK307493] | 60.225
12 | NC(=O)c1c(NC(=S)NC(=O)c2ccccc2Br)sc2c1CCC2 [CBK265543] | 101.527
13 | COC(=O)C(O)(CC(=O)Nc1ccc(C)c(F)c1)C(F)(F)F (stereo not shown) [CBK267440] | 93.1585
14 | O=C(O)CN1C(=O)/C(=C/C2=Cc3ccccc3OC2)SC1=S [CBK264787] | 114.266
15 | Cc1cc(OCC(=O)Nc2ccc(S(=O)(=O)N3CCOCC3)cc2)ccc1[N+](=O)[O-] [CBK268114] | 116.963
16 | O=c1cc(N2CCOCC2)cnn1CCCCOc1ccccc1 [CBK307327] | 12.8211
17 | Cc1ccc(-n2c(=O)[nH]c3c(C(N)=O)nc(-c4ccccc4)nc32)cc1C [CBK287718] | 51.0671
18 | CN1CCN(CC(=O)N/N=C/C2CC=CCC2)CC1 (stereo not shown) [CBK019340] | 87.0285
19 | CC1CCc2c(sc(NC(=S)NC(=O)c3ccc4c(c3)OCCO4)c2C(N)=O)C1 (stereo not shown) [CBK266370] | 134.326
20 | CCOC(=O)c1c(CN2CCCC2)nc2c3ccccc3ccn12 [CBK267521C] | 90.1995
21 | O=C(Nc1nc2c(F)cc(F)cc2s1)c1ccc(F)cc1 [CBK287617] | 95.588
22 | CCOC(=O)c1[nH]c2ccccc2c1NS(=O)(=O)c1ccc(NC(C)=O)cc1 [CBK047411] | 86.5421

Reference: PMC12040169 (PLOS Biology, 2025)
